From PubChem BioAssay AID1656 (Sanford-Burnham Center for Chemical Genomics, 2009) come the findings set out here.

The other results are listed elsewhere or left out. Shown are side measurements of this screen, not its main read-out; they come without a call. Compounds called inactive in the main read-out are mostly missing here.

This assay can be described thus: inhibitors of hepatocyte lipid droplet formation, primary screen, imaging, high-throughput imaging, BODIPY stain (AID 1656).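 Also: cells counted across two imaged fields per well.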 Particulars: AML12 mouse hepatocytes, oleate lipid droplets, measured here: cell count, cytotoxicity flag, at 6.5 µM. In short, it runs like this: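 Assay system: AML12 mouse liver cells | Compound dosing: One dose, 6.5 µM compound | Read-out basis: Droplet intensity reduction, % inhibition | Measured by: Fluorescence imaging, 20x objective, two fields per well | Schedule: Overnight treatment with compound plus oleate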
The molecule `Cc1ccc(Cn2c(=N)n(CC(=O)c3ccc([N+](=O)[O-])cc3)c3ccccc32)cc1` yielded a cell count of 285 cells.
For the molecule `O=C(NCc1ccccc1)C(c1ccccc1F)N(C(=O)c1csnn1)C1CCCC1` (configuration not stated), the cell count was found to be 802 cells.
In the case of `O=C(NCCc1ccccc1)c1oc2ccccc2c1COc1ccccc1`, the cell count is 678 cells.
`Cc1cc2nn(-c3ccc(Cl)cc3)nc2cc1N` registered a cell count of 809 cells.
For the molecule `O=C(Nc1ccc(-c2csc(Nc3ccc(Cl)cc3)n2)cc1)c1cccc(C(F)(F)F)c1`, the cell count came out at 721 cells.
The molecule `C#CC(=O)N(c1ccc(OC)cc1OC)C(C(=O)NC1CCCC1)c1cccs1` (configuration not stated) gave a cell count of 614 cells.
The molecule `CC(C)Oc1ccc(C(=O)OC(C)C(=O)Nc2nc(-c3cccc([N+](=O)[O-])c3)cs2)cc1` (configuration not stated) yielded a cell count of 720 cells.
The same measure for `Cc1cc(N(CCO)CCO)ccc1N=Nc1cc(F)ccc1F`: 691 cells; for `COc1ccc(S(=O)(=O)N2CCOCC2)cc1NC(=O)c1ccccc1C`: 621 cells.
Molecule `Cc1ccc(-c2cc(C(F)F)n3ncc(C(=O)N4CCc5ccccc54)c3n2)cc1` registered a cell count of 123 cells.
The molecule `CCC(C)C(=O)N1c2ccccc2C(=C2SC(C(=O)OC)=C(C(=O)OC)S2)C(=S)C1(C)C` (configuration not stated) returned a cell count of 615 cells.
As to `CCOc1ccccc1CNS(=O)(=O)c1ccc(-c2cnc(C3CC3)o2)cc1`, the cell count worked out at 288 cells.
The same measure for `COc1ccc(-c2cnc(SCC(=O)Nc3nc(C(C)(C)C)cs3)n2Cc2ccco2)cc1`: 689 cells.
The figure for `CN(C)CCCN(C(=O)c1ccc2ccccc2c1)c1nc2cc3c(cc2s1)OCO3` is 837 cells.
The same measure for `COc1ccccc1Nc1ccc(NS(=O)(=O)c2ccc(C(C)=O)cc2)cc1`: 782 cells.
`CS(=O)(=O)N(Cc1ccc(Cl)cc1)c1ccc(C(=O)N/N=C/c2cc3ccccc3nc2Cl)cc1` displayed a cell count of 577 cells.
The molecule `O=C(COc1ccc(C2SCCS2)cc1)Nc1ccc(Cl)cc1` had a cell count of 248 cells.
The same measure for `Cc1nccn1S(=O)(=O)c1cc([N+](=O)[O-])ccc1Cl`: 13 cells; for `O=[N+]([O-])c1cc2c(c(CSc3nnc(Nc4ccccc4)s3)c1)OCOC2`: 740 cells; for `O=C1C(NS(=O)(=O)c2cccs2)=C(N2CCN(c3cccc(Cl)c3)CC2)C(=O)c2ccccc21`: 765 cells.
In turn, `COC(=O)c1cc(C(=O)N2CCN(c3ccccc3OC)CC2)cc([N+](=O)[O-])c1` showed a cell count of 265 cells.
The figure for `O=C(N/N=C/C(Br)=C\c1ccccc1)c1n[nH]c2c1CCC2` is 257 cells; for `O=C(N/N=C/c1ccccc1OC(F)F)c1cc(-c2ccncc2)nc2ccccc12` it is 204 cells.
For the molecule `COc1cccc(CNC(=O)CCCc2c[nH]c3ccccc23)c1`, the cell count came out at 860 cells.
For the molecule `CCOc1ccc(CCNC(=O)CSc2cc(=O)n(CC)c3ccccc23)cc1OCC`, the cell count amounted to 636 cells.
In the case of `Cc1ccc(S(=O)(=O)N(C)c2ccc(OCC(=O)Nc3nc4ccccc4s3)cc2)cc1`, the cell count is 296 cells.
The molecule `O=C1c2cccc3cc([N+](=O)[O-])cc(c23)C(=O)N1CCN1CCCC1` gave a cell count of 197 cells.
Consider `O=c1[nH]c(=O)n(Cc2ccccc2)c2nc(-c3ccc(Oc4ccc(F)cc4)c([N+](=O)[O-])c3)n(CCO)c12`, for which the cell count was 748 cells.
The same measure for `COc1ccc(N=NC2C(=O)N(c3ccccc3)N=C2C)cc1` (configuration not stated): 606 cells; for `Cc1cc(C)cc(NS(=O)(=O)c2ccc(-c3cnc(C4CC4)o3)cc2)c1`: 228 cells; for `O=C(Oc1cccc(/C=N/Nc2nc(Nc3ccccc3)nc(N3CCOCC3)n2)c1)c1ccco1`: 587 cells.
`COC(=O)c1ccc(NS(=O)(=O)c2ccc3c(c2)n(C)c(=O)n3C)cc1` gave a cell count of 810 cells.
Consider `COc1cccc(CNC(=O)C2CCCN(S(=O)(=O)c3c(C)noc3/C=C/N(C)C)C2)c1` (configuration not stated), for which the cell count was determined as 688 cells.
In turn, `O=C(Cc1ccccc1)Nn1c(-c2ccccc2)nc2ccccc2c1=O` yielded a cell count of 621 cells.
The same measure for `Clc1ccc(Nc2nc(NCCN3CCOCC3)nc(N3CCOCC3)n2)cc1`: 326 cells; for `Cc1nc2ncccn2c1-c1csc(Nc2ccc(N(C)C)cc2)n1`: 214 cells; for `CCCCOc1ccccc1C(=O)N(Cc1ccco1)C1CCS(=O)(=O)C1` (configuration not stated): 678 cells.
`CCCSC1=C(C#N)C(c2cccs2)C(C(=O)Nc2ccccc2)=C(C)N1` (configuration not stated) came in with a cell count of 754 cells.
The molecule `COC(=O)Nc1nc(-c2ccccc2)c(C(=O)c2ccccc2)s1` displayed a cell count of 272 cells.
Turning to `CCn1c2ccccc2c2cc(NC(=O)c3cc(OC)cc(OC)c3)ccc21`, the cell count is 143 cells.
`CCOc1ccc(CCNC(=O)CS(=O)Cc2nc(-c3ccc(OC)c(OC)c3)oc2C)cc1OCC` (configuration not stated) came in with a cell count of 726 cells.
`COc1ccc(-n2c(=O)c3ccccc3n(CC(=O)Nc3cc(C)on3)c2=O)cc1OC` registered a cell count of 357 cells.
In turn, `O=C(COC(=O)CCc1ccccc1)Nc1ccc(F)cc1Cl` registered a cell count of 114 cells.
The figure for `O=[N+]([O-])c1cc(Cl)ccc1N1CCN(c2cccc(C(F)(F)F)c2)CC1` is 645 cells.
As for `Cc1cccc(OCc2ccc(C(=O)N3CCOCC3)o2)c1`, the cell count was determined as 97 cells.
The figure for `Cc1ccc(/C=C/C(=O)NCC2COc3ccccc3O2)o1` (configuration not stated) is 698 cells.
As for `CC(C)(C)NC(=O)CSc1nc2ccc(Nc3nc(N4CCOCC4)nc(N4CCOCC4)n3)cc2s1`, the cell count stood at 659 cells.
The molecule `CCCC(=O)OCC(=O)Nc1ccccc1Sc1ccccc1` had a cell count of 187 cells.
For `COCCCN=C1NN=C(c2cc(C)n(Cc3ccccc3Cl)c2C)CS1`, the cell count was 189 cells.
With `CC1CCN(C(=O)c2ccc3c(c2NCCO)C(=O)c2ccccc2C3=O)CC1`, the cell count was 682 cells.
`Cc1cccc(NC(=O)Cn2cc(C(=O)C3CC3)c3ccccc32)c1` had a cell count of 819 cells.
`C/C=C/COC(=O)c1[nH]c2c(c1C)C(=O)CC(c1ccco1)C2` (configuration not stated) gave a cell count of 207 cells.
`CCOc1ccc(CCNC(=O)CS(=O)Cc2nc(-c3ccc(OC)cc3)oc2C)cc1OCC` (configuration not stated) returned a cell count of 782 cells.
The figure for `Cc1ccc(S(=O)(=O)N2CCCCC2)cc1C(=O)N(C)CCOc1ccccc1` is 865 cells; for `CNc1nc(C)c(C(=O)c2ccc(Cl)cc2)s1` it is 828 cells.
`COc1ccccc1/C=N\Nc1ccccc1[N+](=O)[O-]`: the cell count was found to be 719 cells.
`COc1cc2c(cc1NC(=S)NC(=O)c1c(OC)cccc1OC)oc1ccccc12` gave a cell count of 622 cells.
The molecule `CN(NC(=O)c1ccccc1F)c1nc(C(F)(F)F)nc2ccccc12` yielded a cell count of 226 cells.
`COc1ccccc1N1N=C(c2ccc([N+](=O)[O-])cc2)CC1c1ccccc1` (configuration not stated) registered a cell count of 778 cells.
`CC(C)(C)c1cc(Br)c(O)c(N=Nc2ccc(S(=O)(=O)N3CCOCC3)cc2)c1`: the cell count was 558 cells.
The same measure for `O=C(NCc1cccs1)c1cccnc1Cl`: 292 cells; for `CCC(C)(C)NC(=O)C(c1sccc1C)N(Cc1ccco1)C(=O)c1csnn1` (configuration not stated): 779 cells.
As to `CCOc1ccc(CCNC(=O)c2cc(-c3ccccc3)c(N3CCOCC3)s2)cc1OCC`, the cell count turned out to be 775 cells.
For `COc1ccc(Cl)cc1NC(=O)CN1C(=O)NC2(CCCC2)C1=O`, the cell count is 823 cells.
In turn, `COc1ccc(Cl)cc1NC(=O)CCNC(=O)OCc1ccccc1` showed a cell count of 666 cells.
In turn, `COc1cccc(N=Nc2c(C)[nH]n(-c3ccccc3)c2=O)c1` registered a cell count of 748 cells.
The figure for `CC(C)CC(C(=O)O)N1C(=O)C2C3CC(C2C1=O)C1C(c2ccccc2)c2sc(=O)[nH]c2SC31` (configuration not stated) is 164 cells; for `COc1ccc(C2NCCc3c2[nH]c2ccccc32)cc1COc1ccc(F)cc1` (configuration not stated) it is 112 cells.
`COc1ccc(S(=O)(=O)N2CCN(C(=O)c3ccc([N+](=O)[O-])o3)CC2)cc1` showed a cell count of 184 cells.
Take `COc1ccc(N(Cc2cc(=O)[nH]c3ccccc23)C(C)=O)cc1`: the cell count was 654 cells.
With `Cc1ccc(CNC(=O)CCCc2c[nH]c3ccccc23)cc1`, the cell count amounted to 780 cells.
`CN1CC(=O)Nc2ccc([N+](=O)[O-])cc2C1=O` showed a cell count of 566 cells.
The figure for `COc1ccc2c(c1)C(C)=CC(C)(C)N2S(=O)(=O)c1ccc(C)cc1` is 158 cells; for `COc1ccc(/C=N/NC(=O)CCn2cnc(-c3ccccc3)c2-c2ccccc2)cc1` it is 254 cells; for `O=C(N/N=C/c1ccc(Cl)cc1)c1sccc1OCc1ccc(F)cc1` it is 249 cells.
`Cn1c2c(c(=O)n(C)c1=O)C(c1ccc(Cl)cc1)C(C#N)=C(N)O2` (configuration not stated) showed a cell count of 237 cells.
The same measure for `CCOc1ccc(CCNC(=O)Cn2cccc2C(=O)c2ccccc2)cc1OCC`: 712 cells; for `O=C(O)CCCC(=O)Nc1ccc(Br)cc1C(=O)O`: 502 cells.
The figure for `Cc1ccc(C=Nc2ccccc2C(N)=O)s1` is 156 cells; for `CCN1C(=O)/C(=C/C=C2/Sc3ccc4ccccc4c3N2CCO)SC1=S` it is 598 cells; for `CCOc1ccc(CCNC(=O)COC(=O)c2cccnc2OCC)cc1OCC` it is 729 cells.
Regarding `C=CCN(C(=O)c1csnn1)C(C(=O)NCc1ccccc1)c1ccccc1F` (configuration not stated), the cell count stood at 786 cells.
The same measure for `Cc1cc(NC(=O)c2sccc2C)n(-c2nc3ccccc3[nH]2)n1`: 716 cells; for `CCOc1ccc(CCNC(=O)CCNC(=O)c2ccccc2Cl)cc1OCC`: 708 cells.
On to `COC(C[C@@H](O)C[C@@H](O)COCc1ccccc1)OC`, for which the cell count was 718 cells.
On to `CCOc1ccc(NS(=O)(=O)c2ccc(C(=O)N3CCC3)cc2)cc1`, for which the cell count was found to be 728 cells.
The molecule `CN(C1=C(NC(=O)c2ccc(Cl)cc2)C(=O)c2ccccc2C1=O)c1ccccc1` returned a cell count of 668 cells.
With `CCOc1ccc(CCNC(=O)COC(=O)c2c(C)nn(-c3ccccc3)c2C)cc1OCC`, the cell count worked out at 847 cells.
In the case of `CCOc1ccc(CCNC(=O)c2cccs2)cc1OCC`, the cell count turned out to be 880 cells.
The molecule `C/C(=N\Nc1nc(-c2ccccc2)cs1)c1cccs1` gave a cell count of 659 cells.
`CCOC(=O)c1ccc(N2CCN(c3ccccc3F)CC2)c(NC(=O)Nc2ccccc2)c1` showed a cell count of 605 cells.
The figure for `COc1ccc(OC)c(Nc2cc(-c3ccccc3)nc(N)n2)c1` is 287 cells.
Consider `c1ccc(Oc2cccc(CN3CCCCC3)c2)cc1`, for which the cell count came to 773 cells.
`O=C(NCc1ccc(C(=O)O)cc1)OCc1ccccc1` yielded a cell count of 695 cells.
Molecule `CCOc1ccc(-c2nonc2NC(=O)c2ccco2)cc1` showed a cell count of 665 cells.
The same measure for `CC1CCCN(C2=C(NS(=O)(=O)c3ccc(Cl)cc3)C(=O)c3ccccc3C2=O)C1` (configuration not stated): 529 cells; for `Cc1ccc(-c2cc(C(=O)N/N=C/c3c(C)nn(-c4ccccc4)c3C)n[nH]2)s1`: 235 cells; for `COc1cccc(/C(C)=N/NC(=O)Cc2c(C)[nH][nH]c2=O)c1`: 614 cells.
As for `CCc1ccc(NC(=O)CSc2nnc(C)c(=O)n2N)cc1`, the cell count is 655 cells.
`Cc1cc(N2CCOCC2)n2nc(C)c(-c3ccccc3Cl)c2n1` came in with a cell count of 829 cells.
The same measure for `CCOc1ccc(NC(=O)CN(C)c2ccc(S(=O)(=O)N(C(C)C)C(C)C)cn2)cc1OCC`: 734 cells; for `CCc1cc(C(=O)N2CCc3c([nH]c4ccccc34)C2c2ccc(OC)cc2F)no1` (configuration not stated): 650 cells.
